Laboratory results as given in PMC6919601, “Identification of Plasmodium dipeptidyl aminopeptidase allosteric inhibitors by high throughput screening” (PLoS ONE, 2019).
Where “and” joins values, the source holds several entries; their conditions need not be identical. Equal values may be shown once. Screen size: about 110,000 compounds; about 230 (0.21%) showed an effect of 50% or more. The list shows a part of the results.

Biological target: DPAP1 (Plasmodium falciparum, UniProt Q8IIJ9)
Experiment: primary screen, percent inhibition; read by cleavage of a fluorogenic dipeptide substrate; higher = more effect of the substance
Set-up: species or system P. falciparum D10 trophozoite lysates; single well
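Further: 30 min substrate incubation versus DMSO and 10 µM JCP410 controls.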

Chain of DPAP1 (Q8IIJ9 whole entry, looked up): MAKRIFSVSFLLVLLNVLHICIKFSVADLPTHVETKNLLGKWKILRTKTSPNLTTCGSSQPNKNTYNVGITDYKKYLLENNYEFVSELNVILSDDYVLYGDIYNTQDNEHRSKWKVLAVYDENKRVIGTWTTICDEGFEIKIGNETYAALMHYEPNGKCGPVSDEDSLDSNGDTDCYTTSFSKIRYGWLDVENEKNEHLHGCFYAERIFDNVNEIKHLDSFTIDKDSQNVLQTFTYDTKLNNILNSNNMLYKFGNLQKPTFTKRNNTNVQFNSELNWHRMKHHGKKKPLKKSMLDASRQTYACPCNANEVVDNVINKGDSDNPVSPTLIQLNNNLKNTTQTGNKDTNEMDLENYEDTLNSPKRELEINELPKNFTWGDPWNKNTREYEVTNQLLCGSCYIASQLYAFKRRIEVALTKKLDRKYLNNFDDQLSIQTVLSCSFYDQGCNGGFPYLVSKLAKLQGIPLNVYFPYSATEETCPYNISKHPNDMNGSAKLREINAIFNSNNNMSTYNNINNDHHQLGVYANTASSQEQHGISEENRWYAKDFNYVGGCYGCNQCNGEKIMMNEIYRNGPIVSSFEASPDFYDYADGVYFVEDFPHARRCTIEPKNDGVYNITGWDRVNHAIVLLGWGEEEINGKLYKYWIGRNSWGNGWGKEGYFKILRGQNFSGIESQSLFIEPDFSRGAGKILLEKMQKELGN

| Structure (SMILES) | % Inhibition @ 10 uM |
| --- | --- |
| COC(=O)C1=CN(C2CC2)C=C(C(=O)OC)C1c1ccccc1Cl | -7.18% |
| c1ccc(-c2nc(-c3cccs3)[nH]c2-c2ccccc2)cc1 | 1% |
| c1cncc(CN2CNc3nc4ccccc4n3C2)c1 | -1.72% |
| Cc1cc(C)nc(NC(=O)c2c(-c3ccccc3Cl)noc2C)c1 | -5.98% |
| Cc1nnc(NC(=O)CSc2nnc(Cc3cccn3C)n2-c2cccc(C)c2C)s1 | 0.226% |
| COC(=O)/C=C1\SC(NC(=O)c2ccc(OC)cc2)=NC1=O | -1.52% |
| O=C(c1ccc(CS(=O)(=O)c2ccc(Br)cc2)o1)N1CCCCC1 | -3.09% |
| O=c1c2cccnc2n(Cc2ccccc2F)c(=O)n1Cc1ccc2c(c1)OCO2 | 1.72% |
| COC(=O)c1cc(S(=O)(=O)NCCCN2CCCC2=O)cn1C | 3.78% |
| C=CCNC(=O)/C(C#N)=C/c1c(Oc2ccccc2Cl)nc2c(C)cccn2c1=O | 2% |
| CCN1CCN(C(=O)C(NC(=O)c2ccc(C34CC5CC(CC(C5)C3)C4)cc2)C(C)C)CC1 (stereo not drawn) | -1.73% |
| N#CC1=C(N)Oc2[nH]nc(-c3ccc(Cl)c(Cl)c3)c2C1c1cccc(O)c1 (stereo not drawn) | -7.18% |
| O=C(c1ccc2c(-c3ccccc3)[nH]nc(-c3ccccc3)c1-2)C(F)(F)F | 0.968% |
| Cc1ccc2ncnc(NCc3ccco3)c2c1 | 7.93% |
| O=S(=O)(c1c[nH]cn1)N1CCN(Cc2ccc3c(c2)OCO3)CC1 | 1.56% |
| COC(=O)c1ccc(OCC(O)CN2CCOCC2)cc1 (stereo not drawn) | -9.16% |
| O=C(O)c1cc2c(o1)CCC/C2=N/O | -2.28% |
| Cc1ccc(Cn2cc(/C=C3\C(=N)N4N=C(N5CCOCC5)SC4=NC3=O)c3ccccc32)cc1 | -1.66% |
| Nc1ccc2ccccc2c1S(=O)(=O)O | -1.91% |
| O=C(COc1ccccc1)N1CCCCC1 | -2.42% |
| CCOC(=O)N1CCC(N2CCCC(C(N)=O)C2)CC1 (stereo not drawn) | -3.6% |

| Structure (SMILES) | % Inhibition @ 10 uM |
| --- | --- |
| Cc1cc(C)c(C2C(C#N)=C(N)Oc3[nH]nc(C)c32)cc1COc1ccccc1Cl (stereo not drawn) | 4.18% |
| O=C1C2C3CCC(O3)C2C(=O)N1c1cnn(Cc2ccc(Cl)c(Cl)c2)c1 (stereo not drawn) | -3.65% |
| COc1ccccc1N1CCN(C(=O)CN(c2ccccc2F)S(C)(=O)=O)CC1 | 4.57% |
| COc1ccccc1-c1nnc(C2CCN(C(=O)c3ccc(F)cc3F)CC2)o1 | 2.13% |
| Cc1ccc(C2C3=C(O)CCCC3=Nc3nc(SCC(=O)NCc4ccccc4)nc(O)c32)cc1 (stereo not drawn) | 2.33% |
| NC(=O)c1c(-c2ccccc2)csc1NC(=O)COc1ccccc1Cl | -2.87% and 5.99% |
| CCS(=O)(=O)C1=NN2C(=N)/C(=C\c3ccc(-c4cccc(C(=O)O)c4)o3)C(=O)N=C2S1 | 5.1% |
| CCc1ccc(OCC(=O)Nc2ccc(S(=O)(=O)Nc3nc(C)cc(C)n3)cc2)cc1 | -2.34% |
| Cc1ccc(S(=O)(=O)N2CCN(c3ccc4nnc(-c5ccccc5)n4n3)CC2)cc1 | 3.45% |
| CCN1CCN(Cc2nc3c(c(=O)n(C)c(=O)n3C)n2Cc2cccc(Cl)c2)CC1 | 2.9% |
| Oc1cc(-c2ccccc2)nc(-c2ccc(Br)cc2)n1 | 1.91% |
| C#CCN1Cc2cc(OC)c(OC)cc2C2(CCCC2)C1 | -3.85% |
| Cc1nn(C)cc1/C=C1\CCC/C(=C\c2cn(C)nc2C)C1=O | -4.77% |
| COc1cc2c(cc1OC)C(c1ccccc1[N+](=O)[O-])NCC2 (stereo not drawn) | 6.18% |
| Cc1ccc(C(=O)N/C(=C\c2ccc3c(c2)OCO3)C(=O)NCCC(=O)O)cc1 | 0.222% |
| CCOc1ccc(S(=O)(=O)c2cnc3ccc(CC)cc3c2O)cc1 | -7.13% |
| CC(C)(C)c1ccc(Cn2ncc3ccccc32)cc1 | 1.67% |
| COc1ccc(Br)cc1C1=N/C(=C\c2ccc(C)cc2)C(=O)O1 | 3.26% |
| COC(=O)c1c(NC(=O)/C=C/c2ccc(OC)c(OC)c2)sc(-c2ccccc2)c1C | -7.22% |
| CCc1ccc(C2c3c(oc4ccccc4c3=O)C(=O)N2c2nncs2)cc1 (stereo not drawn) | 0.2% |
| Cc1ccc(CNC(=O)c2cc3c(=O)n(Cc4cccs4)ccc3nc2C)cc1 | -0.12% |

| Structure (SMILES) | % Inhibition @ 10 uM |
| --- | --- |
| CC(COc1ccc2c(c1)OCO2)NC(=O)Cc1nnc(O)c2ccccc12 (stereo not drawn) | -2.84% |
| O=C(c1ccccc1)N1CCN(C(=O)C2CC2)CC1 | 1.03% |
| CCn1cc2nc(SCC(=O)NCc3ccccc3Cl)n(CCc3ccccc3)c(=O)c2n1 | -3.79% |
| CCOCCCN1CC(C(=O)NCc2ccc3c(c2)OCO3)CC1=O (stereo not drawn) | -2.99% |
| Cc1cccc(C)c1NC(=O)COc1ccccc1 | 1.44% |
| CC(C)CN(CC(C)C)C(=O)C(CC1CCCCC1)C(=O)NCC#N (stereo not drawn) | -0.214% |
| COC(=O)c1ccc(-c2ccco2)n1Cc1ccc(Cl)cc1 | 1.22% |
| Brc1ccc(CN2CCN(Cc3ccccc3)CC2)s1 | -3.13% |
| CCCn1c2ccccc2c2cnn(CC(=O)N(C)Cc3ccccc3)c(=O)c21 | 6.14% |
| Cc1c(CC(C)C)nc(N)c(C#N)c1-c1ccccc1 | 99.3% |
| O=C(Cn1ncc2c3ccccc3nc-2c1O)N(Cc1ccccc1)Cc1cccs1 | 0.231% |
| Cc1ccc(CNC(=O)c2c(C)cc(=O)oc2C)cc1 | -2.26% |
| COc1ccc(NC(=O)C23CC4CC(C2)CC(n2cnc(Br)n2)(C4)C3)c(OC)c1 | 0.431% |
| COc1ccc(-c2noc(CCC(=O)N3CCN(Cc4ccccc4)CC3)n2)cc1 | 0.402% |
| N#C/C(=C/c1ccc(Cl)cc1)NC(=O)c1ccccc1 | -3.26% |
| CC(Sc1nnc(COc2ccc(Br)cc2)n1-c1ccccc1)C(=O)O (stereo not drawn) | -5.15% |
| COc1ccc(-c2noc(CN(C(=O)c3cccs3)C3CCCCC3)n2)cc1 | 0.486% |
| COc1ccc2c(c1)OCC/C2=N/OC(=O)c1ccc(C)cc1 | -6.69% |
| CC(=O)c1ccc2[nH]c3ccccc3c2c1 | -3.48% |
| c1ccc2c(c1)N1CCCN=C1N2CCN1CCOCC1 | -5.16% |
| O[C@@]1(c2ccccc2)CCN[C@H]2CCCC[C@@H]21 | -4.61% |
